The campaign covered roughly 43,000 compounds. About 200 (0.47%) were called active. Roughly 12% stayed inconclusive and do not appear here. Calls follow the shape of the dose curve; as a rule, active = well fitted cell-killing curve with a large enough effect; inconclusive = small, poorly fitted or top-dose-only effect, or effect the other way; inactive = flat fitted curve, though single readings scatter. Some of the results follow.

Consider 59 compounds from PubChem BioAssay AID1508642 (National Center for Advancing Translational Sciences (NCATS), 2021).
% is scaled to controls: 0 for no effect and ±100 for the full control effect.

The test can be described thus: Cell viability qHTS assay in S16 Pmp22-F2sN cells. Also: nearly all actives have a fitted effect of over 65% in size. Conditions: S16 Pmp22-F2sN Schwann cells viability, CellTiter-Glo, 24 h; series mostly up to 57.5 µM; activity change, negative = cytotoxicity: at the top concentration. A digest of the protocol: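 S16 Pmp22-F2sN Schwann cells (500-1,000/well) in phenol-red-free DMEM with 10% FBS received 23 nL compound by pin tool for 24 h at 37 °C. Viability was then read as CellTiter-Glo luminescence after 15 min at room temperature.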
Consider `Cc1cccc(C)c1OCC(=O)Nc1nonc1-c1ccc(Br)cc1`, for which the “activity change, negative = cytotoxicity” value was inactive: -1.91%.

For the compound `Cc1ccc(C(=O)Nc2ccc(-n3c(C)nc4ccccc4c3=O)cc2)cc1[N+](=O)[O-]`, the “activity change, negative = cytotoxicity” value was inactive: -13.8%.

Consider `COc1ccc(OC)c(NC(=O)Cn2c(=O)oc3cc(S(=O)(=O)NCc4ccccc4)ccc32)c1`, for which the “activity change, negative = cytotoxicity” value is inactive: -2.64%.

Turning to `O=C(NCC12CC3CC(CC(C3)C1)C2)c1cc2nc(-c3ccc(Cl)cc3)cc(C(F)(F)F)n2n1`, the “activity change, negative = cytotoxicity” value was inactive: 3.89%.

In the case of `CCN(C(=O)CCS(=O)(=O)c1cccc2nsnc12)c1cccc(C)c1`, the “activity change, negative = cytotoxicity” value was inactive: 8.85%.

In the case of `O=C(Nc1nc2n(n1)C(c1ccc(F)cc1)C=C(c1ccc(Cl)cc1)N2)c1ccco1` (centres undefined), the “activity change, negative = cytotoxicity” value is inactive: -0.403%.

Consider `CCOc1ccc2oc(=O)cc(CN3CCN(c4ccc(OC)cc4)CC3)c2c1`, for which the “activity change, negative = cytotoxicity” value is inactive: 2.5%.

Take `CCN(C(=O)c1cc2c(s1)-c1c(C)cccc1OC2)c1cc(C)ccc1C`: the “activity change, negative = cytotoxicity” value was inactive: -0.556%.

In the case of `Cc1cccc(NC(=O)CSc2nc3c(c(=O)[nH]2)CN(Cc2ccc4c(c2)OCO4)CC3)c1C`, the “activity change, negative = cytotoxicity” value is inactive: 5.52%.

Consider `CC(=O)c1cc(-c2ccccc2)n(CC(=O)NC2CCCCCC2)c1C`, for which the “activity change, negative = cytotoxicity” value was inactive: -2.49%.

With `O=C(Cn1c(=O)n(Cc2cccs2)c(=O)c2cccnc21)Nc1ccccc1F`, the “activity change, negative = cytotoxicity” value was inactive: 16.3%.

Consider `Cc1cc(O)c(C(c2cccc(F)c2)N2CCC(C)CC2)c(=O)n1Cc1ccco1` (centres undefined), for which the “activity change, negative = cytotoxicity” value was inactive: 12.3%.

As to `O=C(NCCc1ccc(Cl)cc1)c1cccn1-c1nnc(N2CCCCC2)s1`, the “activity change, negative = cytotoxicity” value is inactive: -1.6%.

As for `CCc1nc(-c2cc(S(=O)(=O)N3CCN(c4ccc(F)cc4)CC3)ccc2OC)no1`, the “activity change, negative = cytotoxicity” value was inactive: 3.72%.

For `CN(C1CCCCC1)S(=O)(=O)c1ccc(C(=O)Nc2sc3c(c2C(N)=O)CC(C)(C)NC3(C)C)cc1`, the “activity change, negative = cytotoxicity” value was inactive: -14.6%.

For `O=C(NCc1cccc(F)c1)c1ccc(CS(=O)c2ccccc2Cl)o1` (centres undefined), the “activity change, negative = cytotoxicity” value is inactive: -6.94%.

On to `CCOC(=O)N1CCc2c(sc3c2c(=O)n(Cc2ccccc2)c(=O)n3CC(=O)Nc2c(C)cccc2C)C1`, for which the “activity change, negative = cytotoxicity” value is inactive: 4.18%.

With `Cn1c(=O)c(=O)n(C)c2cc(S(=O)(=O)N3CCN(c4ccccc4F)CC3)ccc21`, the “activity change, negative = cytotoxicity” value is inactive: -13.8%.

Turning to `CCc1ccc(-n2c(=O)c3cccnc3n2CC(=O)NCc2ccc(F)cc2)cc1`, the “activity change, negative = cytotoxicity” value is inactive: 6.28%.

For `COc1cccc(-c2cc(C(F)(F)F)nc(-n3nc(C)c(Br)c3C)n2)c1`, the “activity change, negative = cytotoxicity” value is inactive: 7.43%.

Regarding `Nc1nc(N)c(S(=O)(=O)c2ccccc2)c(Nc2ccc(Br)cc2)n1`, the “activity change, negative = cytotoxicity” value is inactive: 2.54%.

On to `COc1ccc(C(=O)NCC(c2cccnc2)N2CCN(c3ccc(F)cc3)CC2)cc1` (centres undefined), for which the “activity change, negative = cytotoxicity” value is inactive: -1.64%.

For the compound `O=C(NCC(c1ccc(Cl)cc1)N1CCCCC1)c1ccc(F)cc1` (centres undefined), the “activity change, negative = cytotoxicity” value was inactive: 4.11%.

Consider `Cc1cccc(NC(=O)C(=O)c2cc(C)n(-c3ccccc3)c2C)c1C`, for which the “activity change, negative = cytotoxicity” value is inactive: -0.21%.

In the case of `CCOc1cccc2cc(-c3nc4sc(C(=O)Nc5ccc(C)cc5)c(C)c4c(=O)[nH]3)c(=O)oc12`, the “activity change, negative = cytotoxicity” value was inactive: 6.73%.

Take `COc1ccccc1CNC(=O)c1cccn1-c1nnc(N2CCCC2)s1`: the “activity change, negative = cytotoxicity” value is inactive: 1.27%.

For `Cc1cccc(NC(=O)Cn2nc(-c3ccc(Cl)cc3)c3ccccc3c2=O)c1`, the “activity change, negative = cytotoxicity” value is inactive: 3.01%.

As for `O=C(CSc1ccc2nc(-c3ccccc3)cn2n1)Nc1ccccc1C(F)(F)F`, the “activity change, negative = cytotoxicity” value is inactive: 0.843%.

Regarding `N#Cc1ccc(C(=O)Nc2ccc(Cl)c(-c3nc4cc(Cl)ccc4o3)c2)c(F)c1`, the “activity change, negative = cytotoxicity” value is inactive: -22.8%.

As for `COc1ccc(OC)c(NC(=O)CSC2=Nc3ccccc3C3=NC(CC(=O)NCc4ccco4)C(=O)N23)c1` (centres undefined), the “activity change, negative = cytotoxicity” value is inactive: 0.651%.

Turning to `COc1ccc(NC(=O)c2sc3nc(C)c(C(=O)Nc4ccc(C)cc4C)c(-c4ccc(Cl)cc4)c3c2N)cc1`, the “activity change, negative = cytotoxicity” value was inactive: -23.5%.

For the compound `O=C(NCc1ccc2c(c1)CCN2C(=O)c1ccncc1)c1cccc(Cl)c1`, the “activity change, negative = cytotoxicity” value was inactive: 4.47%.

Consider `COc1ccc(N2CCN(C(=O)Cn3ncc4c3-c3cc(C)ccc3OC4)CC2)cc1`, for which the “activity change, negative = cytotoxicity” value was inactive: 3.25%.

For the compound `COc1ccc(-c2nc3sc(CCNC(=O)C(=O)Nc4cc(C)cc(C)c4)c(C)n3n2)cc1`, the “activity change, negative = cytotoxicity” value is inactive: 0.107%.

Regarding `CCN(C(=O)c1nn(-c2ccc(OC)c(Cl)c2)c(=O)c2c1c1ccccc1n2C)c1cc(OC)ccc1OC`, the “activity change, negative = cytotoxicity” value is inactive: 1.33%.

Consider `Cc1ccc(C(=O)NCC(c2cccs2)S(=O)(=O)c2cccs2)cc1C` (centres undefined), for which the “activity change, negative = cytotoxicity” value is inactive: 0.16%.

With `CCOc1ccc(NC(=O)CN(C)S(=O)(=O)c2ccc3c(c2)c(=O)n(C)c(=O)n3C)cc1`, the “activity change, negative = cytotoxicity” value was inactive: -11.7%.

Consider `COc1cc(OC)cc(C(=O)Nc2cc(-c3nc4ccccc4s3)ccc2OC)c1`, for which the “activity change, negative = cytotoxicity” value was inactive: -0.594%.

With `CCC(=O)Nc1sc2c(c1C(=O)Nc1ccc(OC)cc1)CCC(C(C)(C)C)C2` (centres undefined), the “activity change, negative = cytotoxicity” value is inactive: -14.6%.

`CCOc1ccc(-c2cn(-c3ccc(OC)cc3)c(SCC(=O)Nc3ccccc3Cl)n2)cc1`: the “activity change, negative = cytotoxicity” value was inactive: -2.98%.

For the compound `COc1ccc(F)cc1S(=O)(=O)NCCc1csc(-c2ccc(Cl)cc2)n1`, the “activity change, negative = cytotoxicity” value was inactive: -3.71%.

For the compound `CCc1ccc(NC(=O)C2CCN(c3nnc(-n4c(C)ccc4C)s3)CC2)cc1`, the “activity change, negative = cytotoxicity” value was inactive: 0.0111%.

Take `Cc1ccc(C)c(-n2nnc(-c3nc(-c4ccc(Cl)cc4)no3)c2N)c1`: the “activity change, negative = cytotoxicity” value was inactive: 7.58%.

Consider `CCCC(=O)NCCc1nc2ccccc2n1Cc1c(F)cccc1Cl`, for which the “activity change, negative = cytotoxicity” value is inactive: -7.56%.

As for `O=C(Nc1ccc(S(=O)(=O)N2CCC(c3nc4ccccc4s3)CC2)cc1)c1ccc(F)cc1`, the “activity change, negative = cytotoxicity” value was inactive: 14.3%.

Consider `Cc1ccc(NC(=O)C2Cc3ccccc3N2C(=O)c2ccccc2)cc1Cl` (centres undefined), for which the “activity change, negative = cytotoxicity” value was inactive: -25.4%.

Consider `Cc1cc(C)c(S(=O)(=O)NCCc2cc3c(C)ccc(C)c3[nH]c2=O)c(C)c1`, for which the “activity change, negative = cytotoxicity” value was inactive: 8.55%.

As for `Brc1ccc(-c2ccc(CNCCSc3nnnn3-c3ccccc3)o2)cc1`, the “activity change, negative = cytotoxicity” value was inactive: 4.97%.

On to `O=C(NC1CC(=O)N(c2ccccc2)C1)c1ccc(S(=O)(=O)N2CCOCC2)cc1` (centres undefined), for which the “activity change, negative = cytotoxicity” value was inactive: 1.21%.

`CCOc1ccc(-n2nc(CO)c(C(=O)NCc3ccc(Cl)cc3)n2)cc1`: the “activity change, negative = cytotoxicity” value is inactive: 0.0054%.

For `CC1CCN(C(=O)CSc2c3c(nc4cc(Cl)ccc24)CCCC3)CC1`, the “activity change, negative = cytotoxicity” value was inactive: -1.12%.

Take `Cc1ccc(-c2nnc(SCCOc3ccccc3)o2)cc1`: the “activity change, negative = cytotoxicity” value was inactive: -5.54%.

`c1ccc(-c2cn(-c3ccccc3)c3ncnc(N4CCN(c5ccccc5)CC4)c23)cc1`: the “activity change, negative = cytotoxicity” value was inactive: -5.83%.

For `COc1ccc(OC)c(NC(=O)CSc2n[nH]c(-c3ccccc3Cl)n2)c1`, the “activity change, negative = cytotoxicity” value was inactive: -2.66%.

Take `Cc1cc(C)cc(Oc2c(C(F)(F)F)oc3c(CN4CCCC(C)C4)c(O)ccc3c2=O)c1` (centres undefined): the “activity change, negative = cytotoxicity” value is inactive: -0.63%.

For the compound `COc1ccccc1N1CCN(c2ccc3cc(S(=O)(=O)N4CCCCC4)ccc3n2)CC1`, the “activity change, negative = cytotoxicity” value was inactive: -1.72%.

As for `CCOC(=O)CC(NC(=O)c1cc2cc(Cl)ccc2oc1=O)c1ccc(C)cc1` (centres undefined), the “activity change, negative = cytotoxicity” value was inactive: 2.79%.

`O=S1(=O)c2ccccc2N(Cc2ccc(Cl)cc2F)c2ccccc21`: the “activity change, negative = cytotoxicity” value was inactive: -17.9%.

Consider `CN(C)S(=O)(=O)c1ccc2c(c1)c(=O)c(C(=O)N1CCN(c3cccc(Cl)c3)CC1)cn2C`, for which the “activity change, negative = cytotoxicity” value is inactive: 1.73%.
